Data from PubChem BioAssay AID445 (National Center for Advancing Translational Sciences (NCATS), 2006).
Screen size: about 110,000 compounds; about 40 (0.04%) were called active. Inconclusive results, whose numbers are uncertain, are shown with a selection of clear calls. Calls come from the whole dose curve; as a rule, active = well fitted curve in the direction sought with a large enough effect in the signal ratio (not every such curve was filed as active); inconclusive = small, poorly fitted or top-dose-only effect, or a change in a side signal; inactive = flat fitted curve, though single readings scatter; the % refers to the signal ratio. A potency beside an inconclusive call is a rough fit, not a confirmed value.
Potency is the fitted concentration of half-maximal effect.

Experiment: IkB Signaling;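 for IkBa stabilization activation: 0% = basal untreated cells and 100% = reference inhibitor full response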
Conditions: ABC-DLBCL IkBa-CBG/CBR dual luciferase ratio (green luciferase fused to IkBa over red control in OCI-Ly3 lymphoma cells), 4 h; IkBa stabilization activation: at 57.1 µM (top of the series), scaled: untreated 0%, proteasome inhibitor 100% unless noted
Procedure, shortened: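 Curves were fitted separately to fusion (green), unfused (red) and ratio luminescence, then classed by r2, magnitude and activity. Cells: OCI-Ly3, 4 h compound plus doxycycline at 37C; 10 uM MG-132 defined full response.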
For `CCc1ccc(Sc2cc(C(=O)O)c3ccccc3n2)cc1`, the “IkBa stabilization activation” value was inactive: 0.087%.
In the case of `Cc1ccc(Cl)cc1N1CCN(Cc2nnnn2C2CCCCC2)CC1`, the IkBa stabilization activation is reported as inconclusive: 5.01% [signal inhibitor].
With `COc1ccc2c(c1OC)C(=O)N1c3cccc(Cl)c3C(=O)OC21` (stereo unspecified) the “IkBa stabilization activation” value was inactive: -1.25%.
In the case of `Cc1ccc(Cc2nc3ccccc3nc2SCC(=O)N2CCN(c3ccccc3)CC2)cc1`, the IkBa stabilization activation is reported as inconclusive: 2.02% [signal inhibitor].
In the case of `CCOc1ccccc1NC(=O)C1=C(C)Nc2ncnn2C1c1ccc(NC(C)=O)cc1` (stereo unspecified), the IkBa stabilization activation is reported as inconclusive: 0.707% [signal inhibitor].
In the case of `Cc1cc(NC(=O)c2ccc(Cl)cc2)no1`, the “IkBa stabilization activation” value is reported as inactive: 3.93%.
In the case of `COc1ccc(S(=O)(=O)c2nnn(-c3ccccc3F)c2C)cc1`, the “IkBa stabilization activation” value is reported as inactive: 0.398%.
In the case of `CC1(C)CC(=O)C(C=Nc2ccc3[nH]ncc3c2)=C(O)C1`, the IkBa stabilization activation is reported as inconclusive: 16.5% [signal inhibitor].
In the case of `CCOC(=O)c1c(C)nc2ncccn12`, the “IkBa stabilization activation” value is reported as inactive: -1.64%.
For `COc1ccc(CCCc2nnc(SCC(=O)Nc3cccc(C)c3)o2)cc1`, the Potency was inconclusive: 31.6 µM [signal inhibitor].
In the case of `CCOc1cccc(CC(=O)NCc2ccc3c(c2)CCN3C(C)=O)c1OCC`, the “IkBa stabilization activation” value is reported as inactive: -0.0228%.
For `Cc1ccc2[nH]cc(C(c3ccccc3)c3ccc(C)s3)c2c1` (stereo unspecified), the IkBa stabilization activation was inconclusive: 1.44% [signal inhibitor].
In the case of `CCC(C)NC(=O)CCc1c(C)nc2c(c(C)nn2-c2ccc(C)cc2)c1C` (stereo unspecified), the “IkBa stabilization activation” value is reported as inactive: -0.523%.
With `CCOC(=O)c1ccc(-c2ccc(/C=C(\C#N)c3nc4ccc(C)cc4[nH]3)o2)cc1` the IkBa stabilization activation was inconclusive: 16.3% [signal inhibitor].
For `C[N+](C)(C)/N=C\c1ccc(O)c(O)c1`, the IkBa stabilization activation was inactive: 3.1% [at 11.4 µM, scaled: untreated 0%, proteasome inhibitor 100%].
For `CCN(c1ccc(Cl)cc1)S(=O)(=O)c1nnc(NC(=O)c2ccccc2C)s1`, the IkBa stabilization activation was inconclusive: -3.01% [signal inhibitor].
With `Cc1cccc(CNc2ncnc3ccc(-c4cccc(NS(C)(=O)=O)c4)cc23)c1` the IkBa stabilization activation was inactive: -3.66% [at 11.4 µM, scaled: untreated 0%, proteasome inhibitor 100%].
In the case of `CC(CNC(=O)C1CCN(C(=O)N2CCOc3ccc(Cl)cc32)CC1)c1ccccc1` (stereo unspecified), the IkBa stabilization activation is reported as inconclusive: 0.535% [signal inhibitor].
In the case of `O=CN[C@@H](Cc1cnc[nH]1)C(=O)O`, the IkBa stabilization activation is reported as inactive: -0.0475% [at 11.4 µM, scaled: untreated 0%, proteasome inhibitor 100%].
For `CCO[P@]1(=O)OC[C@@H]2O[C@H](n3cnc4c(N)ncnc43)[C@H](O)[C@@H]2O1`, the IkBa stabilization activation was inactive: 0.769% [at 11.4 µM, scaled: untreated 0%, proteasome inhibitor 100%].
With `CC1Cn2c(C(=O)NCc3cccc(Br)c3)cc3cccc(c32)S1` (stereo unspecified) the IkBa stabilization activation was inconclusive: 0.529% [signal inhibitor].
For `CC(C)(C)C1CCc2nc(NC(=O)c3ccc([N+](=O)[O-])cc3)sc2C1` (stereo unspecified), the IkBa stabilization activation was inconclusive: 5.75% [signal inhibitor].
For `COc1ccc2oc(-c3ccc(C)c(NC(=O)c4ccc(-c5ccccc5[N+](=O)[O-])o4)c3)nc2c1`, the Potency was inconclusive: 15.8 µM [signal inhibitor].
With `CCCCCCCCCCCCCCCCCC(=O)NC[C@@H](COP(=O)([O-])OCC[N+](C)(C)C)OCC` the “IkBa stabilization activation” value was inactive: -22.1%.
For `Cc1c(Cl)cccc1NC(=O)CSc1nc2ncccc2o1`, the “IkBa stabilization activation” value was inactive: 0.103%.
In the case of `COc1ccccc1CNC(=O)C1CCCN(c2nnc(C)c3c(C)n(-c4ccccc4)nc23)C1` (stereo unspecified), the IkBa stabilization activation is reported as inconclusive: -1.98% [signal inhibitor].
With `COc1ccc(-c2nnc(SCC(=O)OC3CCCCC3)o2)cc1OC` the IkBa stabilization activation was inconclusive: 8.84% [signal inhibitor].
In the case of `O=C(CCSCc1cccc(Cl)c1)NCc1ccc(F)cc1Cl`, the IkBa stabilization activation is reported as inconclusive: -1.18% [signal inhibitor].
With `COc1cccc(N(C(=O)c2ccco2)C(C(=O)NC2CCCC2)c2ccc(N(C)C)cc2)c1` (stereo unspecified) the IkBa stabilization activation was inconclusive: 0.42% [signal inhibitor].
With `Cc1[nH]c2ccccc2c(=O)c1CN(C)Cc1ccccc1` the IkBa stabilization activation was inconclusive: 17.6% [signal inhibitor].
In the case of `Cc1ccc2[nH]c(CSc3nnc(NC(=O)c4ccccc4F)s3)cc(=O)c2c1`, the “IkBa stabilization activation” value is reported as inactive: -2.53%.
For `Cc1cccc(N(Cc2cc3ccccc3[nH]c2=O)C(=O)c2cccc(Cl)c2)c1`, the IkBa stabilization activation was inconclusive: 0.944% [signal inhibitor].
For `O=C(Nc1ccc2nccnc2c1)c1cnccn1`, the “IkBa stabilization activation” value was inactive: 6.23%.
For `Cc1cccc(CCNC(=O)c2ccc(CSCc3cccc(Cl)c3)o2)c1`, the IkBa stabilization activation was inconclusive: -1.58% [signal inhibitor].
For `COc1cccc(-c2noc(-c3cccs3)n2)c1`, the “IkBa stabilization activation” value was inactive: 6.35%.
With `O=C(CSc1c[nH]c2ccccc12)N1CCOCC1` the “IkBa stabilization activation” value was inactive: -0.738%.
For `O=C(C(Cc1ccccc1)n1cccc1)N1CCc2ccccc21` (stereo unspecified), the IkBa stabilization activation was inconclusive: 0.625% [signal inhibitor].
With `Cc1ccc(CNc2ccc(N3CCOCC3)cc2)s1` the “IkBa stabilization activation” value was inactive: -2.38%.
With `COc1cccc(C(=O)N2CCN(C3CCC(c4ccccc4)CC3)CC2)c1` (stereo unspecified) the IkBa stabilization activation was inconclusive: 1.54% [signal inhibitor].
In the case of `O=S(=O)(c1cccc(-c2nc3ccccc3s2)c1)N1CCCC1`, the “IkBa stabilization activation” value is reported as inactive: 3.51%.
With `CCOc1ccccc1N1CC(c2nc3ccccc3n2CCOc2ccccc2OC)CC1=O` (stereo unspecified) the IkBa stabilization activation was inconclusive: 0.31% [signal inhibitor].
With `COc1cccc(-n2nnc3c(=O)n(Cc4ccccc4F)cnc32)c1` the “IkBa stabilization activation” value was inactive: -0.505%.
In the case of `Cn1nc(-c2ccc(C(=O)Nc3ccc(OC(F)(F)F)cc3)cc2)c2ccccc2c1=O`, the IkBa stabilization activation is reported as inconclusive: -3.57% [signal inhibitor].
In the case of `O=c1cc(CN2CCN(C/C=C/c3ccccc3)CC2)c2cc(O)ccc2o1`, the IkBa stabilization activation is reported as inconclusive: -1.16% [signal inhibitor].
With `O=C(NCc1ccccc1Cl)C(=O)NCC(c1cccs1)S(=O)(=O)c1ccccc1` (stereo unspecified) the “IkBa stabilization activation” value was inactive: 1.62%.
In the case of `N#C/C(=C\c1ccc(-c2ccc(Cl)c(C(=O)O)c2)o1)c1nc2ccccc2[nH]1`, the IkBa stabilization activation is reported as inconclusive: 1.58% [signal inhibitor].
In the case of `Cc1ccc(-n2c(SCc3ccccc3C)nc3[nH]ncc3c2=O)cc1C`, the IkBa stabilization activation is reported as inconclusive: -6.54% [signal inhibitor].
For `Cc1cccn2c(=O)c3cc(C(=O)NC(C)c4ccccc4)c(=N)n(CCOCCO)c3nc12` (stereo unspecified), the IkBa stabilization activation was inconclusive: 0.911% [signal inhibitor].
For `COc1ccc(Cl)cc1NC(=O)c1c(NCc2cccs2)sc2c1CCCC2`, the IkBa stabilization activation was inconclusive: 1.47% [signal inhibitor].
For `Cc1cccc(-n2ncc(C(=O)Nc3ccc4c(c3)OCO4)c2C2CCN(C(=O)OC(C)(C)C)CC2)c1`, the IkBa stabilization activation was inconclusive: 6.58% [signal inhibitor].
For `CN(C)c1ccc(NC(=O)CSC2=Nc3ccccc3C3=NC(CC(=O)NCc4ccc5c(c4)OCO5)C(=O)N23)cc1` (stereo unspecified), the IkBa stabilization activation was inconclusive: 0.346% [signal inhibitor].
In the case of `Oc1ccc(NCc2ccccc2OCc2ccccc2Cl)cc1`, the Potency is reported as inconclusive: 39.8 µM [signal inhibitor].
For `Cc1ccc(NC(=O)Cn2cnc3c(oc4ccccc43)c2=O)cc1`, the IkBa stabilization activation was inconclusive: 0.0926% [signal inhibitor].
With `CCOC(=O)c1oc2ccccc2c1NC(=O)c1cccc(OC)c1` the “IkBa stabilization activation” value was inactive: 2.38%.
With `Cc1ccc(COc2cccc3cc(-c4noc(-c5ccc(C)cc5)n4)c(=O)oc23)cc1` the IkBa stabilization activation was inconclusive: 1.22% [signal inhibitor].
For `O=C(CSc1nnc(C2CC2)n1Cc1ccccc1)c1cc2ccccc2o1`, the “IkBa stabilization activation” value was inactive: 1.69%.
With `CC(C)C(=O)c1cc2c(cc1NC(=O)c1ccccc1F)OCCO2` the IkBa stabilization activation was inconclusive: 2.73% [signal inhibitor].
With `COc1ccc(C(=O)NCc2nnc(SCC(=O)Nc3ccc(F)cc3)n2-c2ccccc2)cc1` the IkBa stabilization activation was inconclusive: 1.81% [signal inhibitor].
For `COC(=O)c1ccc(NC(=O)CSc2nc3c(c(=O)n(C)c(=O)n3C)n2Cc2ccccc2)cc1`, the IkBa stabilization activation was inconclusive: 16.3% [signal inhibitor].
With `COC(=O)c1ccc(OC)c(CSc2nnc(COc3cccc(C)c3)o2)c1` the IkBa stabilization activation was inconclusive: 4.23% [signal inhibitor].
In the case of `Cc1cc(NC(=O)c2cccc(F)c2)ncc1NC(=O)c1ccco1`, the “IkBa stabilization activation” value is reported as inactive: 11.7%.
In the case of `Cc1cc(Nc2ccc(Cl)cc2)n2cnnc2n1`, the IkBa stabilization activation is reported as inconclusive: 6.56% [signal inhibitor].
In the case of `COc1ccccc1Cc1nc2ccccc2nc1SCC(=O)N1CCCc2ccccc21`, the “IkBa stabilization activation” value is reported as inactive: 0.565%.
In the case of `CC(C)N1CCC2(CC1)N=C(c1ccc3c(c1)OCO3)CC(c1cc(Cl)ccc1O)N2` (stereo unspecified), the Potency is reported as inconclusive: 3.98 µM [rising, partial curve].
With `Cc1ccccc1-c1noc(-c2cc(C(C)C)[nH]n2)n1` the Potency was inconclusive: 31.6 µM [signal inhibitor].
With `Cc1cccc(N2CCN(C(=O)CN3C(=O)COc4ccc(S(=O)(=O)N5CCCC5)cc43)CC2)c1C` the IkBa stabilization activation was inconclusive: 1.02% [signal inhibitor].
With `CC(NC(=O)c1ccco1)C(c1cccs1)N1CCN(c2ccccc2)CC1` (stereo unspecified) the IkBa stabilization activation was inconclusive: 3.91% [signal inhibitor].
With `N#C/C(=C\c1c(Oc2ccc(F)cc2)nc2ccccn2c1=O)c1nc2ccccc2s1` the Potency was inconclusive: 6.31 µM [signal inhibitor, single point].
With `COCC(=O)O[C@]1(CCN(C)CCCc2nc3ccccc3[nH]2)CCc2cc(F)ccc2[C@@H]1C(C)C` the “IkBa stabilization activation” value was inactive: -15.3%.
In the case of `CCc1ccc(CNC(=O)C2CCN(C(=O)c3ccc(-n4ccc5ccccc54)s3)CC2)cc1`, the IkBa stabilization activation is reported as inconclusive: 5.92% [signal inhibitor].
In the case of `Cc1ccccc1CS(=O)(=O)c1ncc(Cl)c(C(=O)Nc2nnc(C(C)C)s2)n1`, the IkBa stabilization activation is reported as inconclusive: 0.251% [signal inhibitor].
